Here are results for 83 compounds from ChEMBL document CHEMBL4888484, “Replenishing the malaria drug discovery pipeline: Screening and hit evaluation of the MMV Hit Generation Library 1 (HGL1) against asexual blood stage Plasmodium falciparum ,using a nano luciferase reporter read-out” (2022).

Molecules are shown by their SMILES. The campaign covered roughly 150,000 compounds. About 540 (0.36%) showed an effect of 50% or more. This is one part of the list.

The assay deals with Plasmodium falciparum. Briefly: Primary screen in NF54 nanoGlo assay, in single point, at 2uM, 72h; a lower Z score goes with more inhibition. Particulars: timepoint 72 hour. The assay is classed as functional, Erythrocyte.
One may read the % Inhibition as the relative decrease from the control value, in per cent. Consider `CCCc1nnc2sc(-c3ncccc3OC)nn12`, for which the “% Inhibition” value came to 4% and the Z score is given as -0.66.
`CCC(C)(C)C(=O)Nc1ccc(Br)cc1F`: the “% Inhibition” value is on record as -10% and the Z score turned out to be 1.99.
In the same order, the values of `O=C(Nc1ccn(-c2ccccc2)n1)N[C@@H](CCO)c1cccs1` are -9% and 1.62.
`Cc1ncsc1C(=O)N1CCC(n2cc(-c3ccccc3)nn2)CC1`: the “% Inhibition” value is listed as -9% and the Z score turned out to be 1.39.
In the case of `O=C(c1ccnn1CCO)N1CCCCCCC1`, the “% Inhibition” value was -11% and the Z score turned out to be 1.11.
Consider `COC[C@@H]1CCC[C@@H]1NS(=O)(=O)c1cccc(C(=O)NC2CCC2)c1`, for which the “% Inhibition” value was -7% and the Z score is recorded as 1.38.
For the compound `CCS(=O)(=O)N(CCN1CCCCC1)C1CN(C(=O)c2ccc(Cl)cc2OC)C1`, the “% Inhibition” value was -6% and the Z score came out at 0.82.
As to `CC(C)(C)N1C(=O)CC(NC(N)=O)C1c1ccc(Cl)c(F)c1` (stereo unspecified), the “% Inhibition” value is -5% and the Z score is given as 0.53.
In the same order, the values of `CCOCCC1(CNC(=O)C2(CNC(=O)OC(C)(C)C)CCCC2)CCCC1` are -7% and 0.65.
In the same order, the values of `O=C(Cc1cccc(O)c1)NC1CCN(C2CCS(=O)(=O)CC2)CC1` are -17% and 1.8.
As to `COc1ccc(Br)cc1CCC(=O)N1CC[C@H](N2CCc3ccccc3C2)C1`, the “% Inhibition” value was 2% and the Z score was -0.33.
As to `CCC(CC)C(=O)N1CCN(C(=O)c2ccon2)[C@H]2CS(=O)(=O)C[C@H]21`, the “% Inhibition” value was -6% and the Z score is recorded as 1.02.
Consider `CC1CN(CC(O)COc2ccccc2-c2ccccc2)CC(C)O1` (stereo unspecified), for which the “% Inhibition” value was -19% and the Z score came out at 2.24.
On to `CC(C)NC(=O)O[C@@H]1CC[C@]2(C)C(CC[C@@H](O)[C@H]2CC(=O)NCc2ccco2)[C@]1(C)CO` (stereo partly specified), for which the “% Inhibition” value is -11% and the Z score amounted to 1.38.
Take `C[C@@H](NC(=O)c1ccc2c(c1)OCO2)c1onc(-c2ccc(Cl)cc2)c1C(=O)O`: the “% Inhibition” value was found to be 6% and the Z score was -0.72.
On to `COC(=O)c1coc(CN[C@H]2CC(=O)N(c3ccccc3)C2)n1`, for which the “% Inhibition” value is -9% and the Z score is reported as 1.23.
For `CCn1cnnc1CCNc1cc(C)c2cc(OC)c(OC)cc2n1`, the “% Inhibition” value is on record as -9% and the Z score is given as 1.31.
On to `COc1ccc(C(=O)N2Cc3cc(C(=O)N4CCCC4)ccc3OC[C@@H]2C)cc1F`, for which the “% Inhibition” value is -13% and the Z score amounted to 1.16.
In the same order, the values of `Cc1noc(C)c1C(=O)Nc1ccc2oc(-c3cc(F)ccc3Br)nc2c1` are -6% and 1.1.
With `Cc1ccccc1-c1nocc1CCC(=O)O`, the “% Inhibition” value is on record as -24% and the Z score is on record as 2.16.
Regarding `O=C(Cc1ccoc1)Nc1cccc(S(=O)(=O)N2CCCCC2)c1`, the “% Inhibition” value is on record as 2% and the Z score was -0.3.
`COc1ccc([C@H](CC(=O)O)NC(=O)c2ccn(-c3cc(C)ccc3OC)n2)cc1OC`: the “% Inhibition” value is recorded as -1% and the Z score is given as 0.05.
Regarding `Cc1ccc(NC(=O)CN2CCOC3(CCCC3)C2)cc1`, the “% Inhibition” value was -7% and the Z score worked out at 1.14.
With `Cc1noc(C)c1C(=O)N1CC(Oc2cccnc2)C1`, the “% Inhibition” value is -7% and the Z score stood at 1.25.
In the case of `CCN(CC)Cc1cccc(CNC(=O)c2cc(-c3csc(C)n3)c[nH]2)c1`, the “% Inhibition” value is reported as -2% and the Z score was determined as 0.23.
Taken in the same sequence, the figures for `CCN(Cc1ccccc1)C(=O)c1ccc2c(c1)C(=O)N(C[C@H]1CCCO1)C2=O` were 1% and -0.15.
In the case of `COc1cccc(Cn2nc(C)c(CNCCc3ccc(Cl)cc3)c2Cl)c1`, the “% Inhibition” value is -5% and the Z score stood at 0.68.
Regarding `Cc1cn(C)nc1C(=O)N1CC[C@@](F)(c2cc(F)cc(F)c2)C1`, the “% Inhibition” value was -10% and the Z score is listed as 1.35.
Turning to `CCN(CC(C)C(=O)O)C(=O)C1CC1C1CC1` (stereo unspecified), the “% Inhibition” value is recorded as -18% and the Z score is 2.63.
With `Cc1nc(CNC(=O)c2cc(Br)co2)ccc1[C@H](C)O`, the “% Inhibition” value was determined as 15% and the Z score is recorded as -1.92.
`CCNc1cccnc1C(=O)NCCCN(CC)S(C)(=O)=O`: the “% Inhibition” value is on record as -5% and the Z score came out at 0.53.
Taken in the same sequence, the figures for `O=S1(=O)CCN(S(=O)(=O)c2ccsc2)[C@H](C2CC2)C1` were -14% and 2.67.
For `O=C(c1cnn2ccncc12)N1CC=C(c2c(F)cccc2F)CC1`, the “% Inhibition” value is on record as -11% and the Z score is 1.58.
Turning to `Fc1ccc(-c2n[nH]cc2-c2nc3ncccc3[nH]2)c(F)c1`, the “% Inhibition” value was -5% and the Z score is given as 0.88.
In the same order, the values of `O=C(NCc1cccnc1)c1cccc(S(=O)(=O)N2CCOCC2)c1` are 5% and -0.81.
Taken in the same sequence, the figures for `Cc1cc(S(=O)(=O)N2CCN(C)CC2)cc2c1NC(=O)C2(C)C` were -7% and 1.1.
Take `C[C@]1(O)CCN(C(=O)Cc2nc3cc(Cl)ccc3[nH]2)C[C@H]1O`: the “% Inhibition” value is recorded as -28% and the Z score is given as 2.45.
Regarding `COc1cc(=O)n(C)cc1C(=O)N1CCc2ccccc2C1`, the “% Inhibition” value is listed as -5% and the Z score is given as 0.74.
In the case of `CN1CCC(CN(CCc2ccccc2)C(=O)C2CCCC2)CC1`, the “% Inhibition” value turned out to be 5% and the Z score is recorded as -0.68.
Consider `Cn1c(=O)[nH]c(=O)c2[nH]c(CCC(=O)N3CCC[C@H]3C=Cc3ccccc3)nc21`, for which the “% Inhibition” value is -1% and the Z score was 0.16.
Take `CC#CC(=O)N1CCC(O)(Cc2ccc(OC(F)(F)F)cc2)CC1`: the “% Inhibition” value is -2% and the Z score is listed as 0.48.
In the same order, the values of `CS(=O)(=O)N1C[C@H]2CN(C(=O)c3ccc4ccccc4n3)CC[C@@]2(CO)C1` are -2% and 0.21.
Taken in the same sequence, the figures for `Cc1cc(NC(=O)c2csnn2)no1` were -16% and 1.43.
`O=C(NC(c1ccccn1)C1CCCC1)N1CCOCC1C1CC1` (stereo unspecified): the “% Inhibition” value is -6% and the Z score came to 0.77.
Take `Cc1cc(OCCN2CCOCC2)c(C)c2c1CC[C@@H]([C@H](C)C(=O)NC(C)(C)C)C2`: the “% Inhibition” value is on record as -16% and the Z score is on record as 2.48.
Regarding `Cc1ccc(CNCC2CCOC2c2cnn(C)c2)s1` (stereo unspecified), the “% Inhibition” value is -13% and the Z score is recorded as 1.16.
Turning to `Cc1cnc(CN2C[C@]3(CCCN(C(=O)OC(C)C)C3)CCC2=O)cn1`, the “% Inhibition” value is 0% and the Z score amounted to 0.02.
As to `CNS(=O)(=O)C1CCN(c2nc(C(C)C)no2)CC1`, the “% Inhibition” value is given as -7% and the Z score is 0.84.
Consider `Cc1ccc(C(=O)Nc2ncn(CC(=O)N3CCN(c4ccccc4)CC3)n2)cc1`, for which the “% Inhibition” value is recorded as -2% and the Z score was determined as 0.21.
`COc1ccc(/C=C/CN2C[C@H]3CCN(C)[C@H]3C2)cc1`: the “% Inhibition” value was -11% and the Z score was 2.14.
Regarding `O=C(c1ccccc1Oc1ccccc1)N1C[C@H]2CC[C@@H](C1)[C@H]2O`, the “% Inhibition” value is reported as -8% and the Z score is given as 0.91.
As for `CCC(CC)c1nnc(NC(=O)C2CCOCC2)s1`, the “% Inhibition” value is listed as -14% and the Z score is reported as 1.8.
As to `CC(C)N1CCN(Cc2cccc(OCCCn3ccnc3)c2)C[C@@H]1C`, the “% Inhibition” value is -10% and the Z score stood at 2.06.
Turning to `COc1ccc(C(=O)N2CC(c3nc(CCOCC4CC4)no3)C2)cc1F`, the “% Inhibition” value stood at 1% and the Z score is -0.08.
Taken in the same sequence, the figures for `Cc1nc2c(c(=O)n1C)CN(C(=O)CCC(F)(F)F)C2` were 3% and -0.43.
As for `CN(C(=O)[C@H]1CC(=O)N(C2CCCC2)C1)C1(C#N)CCC1`, the “% Inhibition” value was -3% and the Z score worked out at 0.41.
On to `CCOC(=O)N1CCN(C(=O)[C@H]2CCCN(c3nccn4nc(-c5cccc(Cl)c5)cc34)C2)CC1`, for which the “% Inhibition” value is -1% and the Z score worked out at 0.15.
For `OCCN1CCC[C@H](c2nc(-c3ccc(F)c(F)c3)n[nH]2)C1`, the “% Inhibition” value is -3% and the Z score is 0.49.
Regarding `O=S(=O)(NCC1(CCO)CC1)C1CC1`, the “% Inhibition” value is on record as 3% and the Z score was -0.47.
As to `Cc1cc(NC2CCCCC2)c2nncn2n1`, the “% Inhibition” value is -1% and the Z score is listed as 0.18.
In the case of `O=C(Nc1ccn(C2CCCCC2)n1)N1CCC[C@H](CO)CC1`, the “% Inhibition” value was -17% and the Z score was found to be 2.24.
As for `COc1ccc2cc1Oc1cccc(c1)CO[C@H]1CCN(c3nc(N)c4cnn(C)c4n3)C[C@H]1NC(=O)CC2`, the “% Inhibition” value amounted to 4% and the Z score is -0.49.
Consider `COc1ccccc1C(=O)N1CCN(C2CC2)CC1`, for which the “% Inhibition” value is recorded as -2% and the Z score is given as 0.3.
In the same order, the values of `Cc1ccc(Oc2cccc(NC(=O)Nc3ccc4c(c3)OCCO4)c2)nn1` are 5% and -0.67.
Taken in the same sequence, the figures for `CCCn1ncc(C)c1NC(=O)c1ccc2c(c1)OCCO2` were -8% and 1.27.
In the case of `Cc1cc(OC2CCN(C(=O)c3ccoc3)CC2)cc(=O)n1C`, the “% Inhibition” value is -9% and the Z score was 1.5.
Regarding `COc1cc2c(cc1OC)CN([C@H]1CCCN(C(=O)c3cc(C)[nH]n3)C1)CC2`, the “% Inhibition” value is on record as -14% and the Z score amounted to 1.22.
In the case of `Cc1ccc(-c2csc(NC(=O)c3ccncc3)c2C(N)=O)cc1C`, the “% Inhibition” value was -7% and the Z score was 1.15.
`Cc1cc(C)nc(O[C@H]2CCCN(C(=O)c3cccn(C)c3=O)C2)n1`: the “% Inhibition” value is -2% and the Z score was determined as 0.22.
Taken in the same sequence, the figures for `CCC(F)(F)CN1CCC[C@H](c2cc(N3CCNCC3)[nH]n2)C1` were -4% and 0.8.
As to `CO[C@H]1[C@H](NC(=O)Cc2cccs2)c2ccccc2C12CCN(Cc1ccccc1C)CC2`, the “% Inhibition” value turned out to be 4% and the Z score is listed as -0.78.
Turning to `CCN(Cc1ccc(C)o1)C(=O)NCCN1CCCC[C@@H]1CO`, the “% Inhibition” value was -5% and the Z score was 0.47.
Taken in the same sequence, the figures for `Cc1ccc2c(c1)ncc1c(-c3ccccc3)nn(-c3ccc(F)cc3)c12` were 34% and -4.58.
With `CCN(CC1CCN(C2CCN(C)CC2)CC1)C(=O)[C@@H]1COc2c(cccc2OC)C1`, the “% Inhibition” value is given as -5% and the Z score was 0.82.
As to `CN(C)c1nccc(CN2C[C@H](CO)OC(C)(C)C2)n1`, the “% Inhibition” value was 3% and the Z score is reported as -0.61.
For the compound `COc1ccc(N2C(=O)[C@@H](C)CS2(=O)=O)cc1S(=O)(=O)NCc1ccccn1`, the “% Inhibition” value was 0% and the Z score is -0.05.
As to `O=C([C@H]1CCC[C@H](O)C1)N(CCC1=CCCCC1)Cc1ccccc1`, the “% Inhibition” value was -6% and the Z score was 1.29.
For `CCc1n[nH]c(=O)c(C(=O)Nc2cc(CC(C)(C)C)nn2C)c1CC`, the “% Inhibition” value is -9% and the Z score amounted to 1.38.
Take `CC(C)(C(=O)Nc1nc2ccc(F)cn2n1)c1cccs1`: the “% Inhibition” value is -8% and the Z score amounted to 0.9.
In the same order, the values of `COc1cccc(CNC(=O)c2ccc(Oc3ccnc(-c4ccc(F)cc4)n3)cc2)c1` are -10% and 1.34.
Turning to `C[C@@H](c1ccccn1)N(Cc1ccccc1)Cc1nnc2n1CCOCC2`, the “% Inhibition” value is -9% and the Z score came to 1.46.
Taken in the same sequence, the figures for `Cc1ccc(CNc2ncccc2-c2nc(-c3ccccc3C)no2)cc1` were 11% and -1.26.
As to `COc1cccc(CN2CCN3C(=O)c4ccccc4OCC[C@@H]4CC[C@@H](NC(=O)NC(C)C)[C@@H](CNC(=O)[C@@H]3C2)O4)c1`, the “% Inhibition” value was 5% and the Z score is given as -0.58.
